Laboratory results published in patent US20150368316A1 (ALBERT EINSTEIN COLLEGE OF MEDICINE OF YESHIVA UNIVERSITY, published 2015).

T1: human PD-L2 on mature human monocyte-derived dendritic cells (human, UniProt Q9BQ51 20-273)
T1 construct: whole, on cells
T1 sequence (looked up): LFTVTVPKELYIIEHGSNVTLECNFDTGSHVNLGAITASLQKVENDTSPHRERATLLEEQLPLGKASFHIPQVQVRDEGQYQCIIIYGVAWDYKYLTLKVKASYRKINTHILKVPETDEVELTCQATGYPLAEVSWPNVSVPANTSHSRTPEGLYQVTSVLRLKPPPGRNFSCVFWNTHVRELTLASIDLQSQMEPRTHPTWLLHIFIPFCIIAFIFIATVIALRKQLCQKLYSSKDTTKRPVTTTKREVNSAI

T2: human PD-L2-Ig (immobilized) (human, UniProt Q9BQ51 20-219)
T2 construct: also called huPD-L2; huPD-L2-Ig; not shown: Ig part of the fusion
T2 sequence (looked up): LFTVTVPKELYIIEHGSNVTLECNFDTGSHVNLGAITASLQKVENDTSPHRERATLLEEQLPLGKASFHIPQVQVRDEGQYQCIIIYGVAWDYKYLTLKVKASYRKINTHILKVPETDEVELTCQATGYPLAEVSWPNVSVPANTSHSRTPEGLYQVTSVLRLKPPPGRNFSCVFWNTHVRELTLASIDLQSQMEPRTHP

T3: mouse PD-L2-Ig (mouse, UniProt Q9WUL5 20-219)
T3 construct: also called mPD-L2-Ig; not shown: Ig part of the fusion
T3 sequence (looked up): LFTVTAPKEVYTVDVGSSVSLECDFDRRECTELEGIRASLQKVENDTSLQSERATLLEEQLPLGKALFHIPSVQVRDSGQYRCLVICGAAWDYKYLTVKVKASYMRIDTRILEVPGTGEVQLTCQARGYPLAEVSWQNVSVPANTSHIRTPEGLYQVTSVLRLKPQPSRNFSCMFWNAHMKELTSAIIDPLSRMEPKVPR


What was measured:
[1] = target: T1, human PD-L2 on mature human …; test: flow cytometry on mature DCs expressing PD-L1 and PD-L2; against wild-type PD-1 Ig
Protocol: (§1) FIG. 2A-2B. […] Monocytes were obtained from PBMCs of healthy donors and differentiated into dendritic cells over 5 days in the presence of GM-CSF and IL-4, then treated with TNF-α to promote the formation of “mature” dendritic cells. […] Blue histograms: PD-L1 or PD-L2 antibody staining; red histograms: isotype controls. B) Increased binding of HA PD-1 Ig to “mature” human DCs. Kd value is calculated from the mean fluorescence intensities (MFI) of Ig fusion protein binding, as detected by flow cytometry.
(§2) Blue histograms: PD-L1 or PD-L2 antibody staining; red histograms: isotype controls. […] Kd value is calculated from the mean fluorescence intensities (MFI) of Ig fusion protein binding, as detected by flow cytometry.

[2] = target: T4, human PD-L1 on mature human monocyte-derived dendritic cells (human, UniProt Q9NZQ7); test: as above
T4 construct: whole, on cells
Protocol: as §1, §2

[3] = target: T2, human PD-L2-Ig (immobilized); test: SPR, equilibrium fit; immobilized ligand, soluble PD-1
Protocol: The A132 mutant PD-1 was made and the binding affinities of wild-type and A132 mutant PD-1 to PD-L1 and PD-L2 were compared. […] Also see Table 2.
Equilibrium dissociation constants (Kds) were determined by non-linear fitting of SPR data, using immobilized PD-Ligands and soluble wild-type or mutant PD-1. Kd values are in μM concentration, followed by the standard errors of the fittings.

mouse PD-L1-Ig = target: T5, mouse PD-L1-Ig (mouse, UniProt Q9EP73 in part); test: Kd from fitting (SPR)
T5 construct: also called mPD-L1-Ig; not shown: Ig part of the fusion

[4] = target: T2, human PD-L2-Ig (immobilized); test: Kd from fitting (SPR)
mouse PD-L2-Ig = target: T3, mouse PD-L2-Ig; test: Kd from fitting (SPR)

mouse PD-L1-Ig, sequence (Q9EP73 19-238): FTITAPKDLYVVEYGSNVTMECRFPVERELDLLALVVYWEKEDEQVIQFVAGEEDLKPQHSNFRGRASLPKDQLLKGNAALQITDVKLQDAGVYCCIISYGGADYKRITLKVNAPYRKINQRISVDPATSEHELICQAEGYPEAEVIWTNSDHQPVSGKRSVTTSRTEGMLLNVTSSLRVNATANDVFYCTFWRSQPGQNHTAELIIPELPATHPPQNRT
T4 sequence (Q9NZQ7 19-290): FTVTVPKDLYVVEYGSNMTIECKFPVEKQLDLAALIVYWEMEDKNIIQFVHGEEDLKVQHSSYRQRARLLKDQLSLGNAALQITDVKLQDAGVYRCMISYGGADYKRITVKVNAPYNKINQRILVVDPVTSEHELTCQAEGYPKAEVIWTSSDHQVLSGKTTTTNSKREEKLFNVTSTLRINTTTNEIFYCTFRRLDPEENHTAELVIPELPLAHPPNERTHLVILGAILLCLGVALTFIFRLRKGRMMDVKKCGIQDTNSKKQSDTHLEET

fold tighter binding than wild type (avidity) [1] [fold] | fold tighter binding than wild type (avidity) [2] [fold] | Kd [3] [nM] | Kd (mouse PD-L1-Ig) [nM] | Kd [4] [nM] | Kd (mouse PD-L2-Ig) [nM] | Binder
> 100 | > 100 |  |  |  |  | human high-affinity PD-1 Ig (HA huPD-1-Ig), A132L PD-1 fused to human IgG1 Fc (Fc fusion, also called HA PD-1 Ig; mutant PD-1 Ig) PGWFLDSPDRPWNPPTFSPALLVVTEGDNATFTCSFSNTSESFVLNWYRMSPSNQTDKLAAFPEDRSQPGQDCRFRVTQLPNGRDFHMSVVRARRNDSGTYLCGAISLAPKLQIKESLRAELRVTERRAEVPTAHPSPSPRSAGQFQVDLVPRGSGGS[… human IgG1 Fc and a few adjoining residues …]
 |  | 188 | 3810 | 190 | 270 | human PD-1, wild-type, soluble (monovalent) (receptor, Used as soluble analyte in SPR; A soluble form would lack the transmembrane and intracellular parts; the Ig construct uses […]; also called huPD-1; hu PD-1) not shown
 |  | 6.5 | 230 | 6.5 | 29 | human PD-1 A132L high-affinity (HA) mutant, soluble (monovalent) (receptor, Used as soluble analyte in SPR; also called huA132L; hu HA PD-1) not shown
